Measurements published in paper PMC4336329 (PLoS ONE, 2015).
The campaign covered roughly 310,000 compounds. About 2,200 (0.71%) showed an effect of 50% or more. Effects have a minus sign here. This is one part of the list.

Molecular target: human ether-à-go-go-related gene (hERG) potassium channel (human, UniProt Q12809)
Test: primary screen, population patch clamp on CHO cells stably expressing hERG

Chain of human ether-à-go-go-related gene (hERG) potassium channel (Q12809 whole entry, looked up): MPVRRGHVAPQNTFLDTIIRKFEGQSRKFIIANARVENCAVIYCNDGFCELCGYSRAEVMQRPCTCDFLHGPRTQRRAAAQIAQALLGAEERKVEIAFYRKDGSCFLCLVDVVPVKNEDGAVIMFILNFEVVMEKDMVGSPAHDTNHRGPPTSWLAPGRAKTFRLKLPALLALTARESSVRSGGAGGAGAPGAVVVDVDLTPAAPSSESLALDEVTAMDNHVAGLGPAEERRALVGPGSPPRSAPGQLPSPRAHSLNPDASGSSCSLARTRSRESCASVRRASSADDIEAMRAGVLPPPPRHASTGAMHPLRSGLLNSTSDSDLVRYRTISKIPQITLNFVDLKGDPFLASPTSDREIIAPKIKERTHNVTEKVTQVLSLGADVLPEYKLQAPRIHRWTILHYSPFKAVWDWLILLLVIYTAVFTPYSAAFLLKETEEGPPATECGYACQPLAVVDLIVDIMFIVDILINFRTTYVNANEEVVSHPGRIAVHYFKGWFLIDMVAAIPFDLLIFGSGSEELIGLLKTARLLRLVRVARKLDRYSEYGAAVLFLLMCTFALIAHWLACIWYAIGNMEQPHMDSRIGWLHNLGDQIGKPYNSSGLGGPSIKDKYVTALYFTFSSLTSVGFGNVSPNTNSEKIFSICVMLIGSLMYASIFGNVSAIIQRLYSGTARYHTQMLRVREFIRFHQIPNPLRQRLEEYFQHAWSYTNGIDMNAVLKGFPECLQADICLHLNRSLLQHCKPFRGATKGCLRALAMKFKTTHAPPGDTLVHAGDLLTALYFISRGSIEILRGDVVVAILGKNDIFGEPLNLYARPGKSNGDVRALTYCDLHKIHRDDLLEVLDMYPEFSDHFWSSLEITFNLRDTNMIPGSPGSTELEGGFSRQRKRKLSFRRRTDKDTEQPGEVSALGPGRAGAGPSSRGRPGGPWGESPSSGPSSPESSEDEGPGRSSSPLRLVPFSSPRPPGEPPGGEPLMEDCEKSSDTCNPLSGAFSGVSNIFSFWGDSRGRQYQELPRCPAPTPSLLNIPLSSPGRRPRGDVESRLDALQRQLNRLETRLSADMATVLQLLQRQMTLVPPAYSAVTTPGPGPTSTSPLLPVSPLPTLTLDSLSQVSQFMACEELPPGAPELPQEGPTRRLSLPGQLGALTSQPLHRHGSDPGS

Compound	hERG current change (%, negative = inhibition) at 1uM [%]
O=C(CSc1nc2ccccc2n1Cc1ccccc1Cl)N/N=C/c1ccccc1C(=O)O	14.5
O=C(O)CCCN1C(=O)/C(=C/C=C/c2ccco2)SC1=S	12.5
CC(NC(=O)c1cccs1)C(S)c1ccccc1 (stereo not drawn)	10.4
Cc1ccc(-c2cc(-c3ccccc3Cl)[nH]n2)c(O)c1	-9.52
COc1c(F)c(F)c(C(=O)O)c(Nc2cccc(C)c2)c1F	14.4
CCCCC1(C)NC(=O)c2c(C)sc(C(=O)OCC)c2N1 (stereo not drawn)	8.47
COc1ccc(OC)c(S(=O)(=O)N(C)CC(=O)Nc2ccc3c(c2)OCCO3)c1	18
COCCN1C(=S)N[C@@H](c2cccc(F)c2)C(C(=O)OC)=C1C	2.84
Cc1cccc(N2CCN(S(=O)(=O)c3cn(C)cn3)CC2)c1C	21.2
Cc1cc(OCC(=O)N2CCN(c3ccccc3)CC2)c2c(C)c(C)c(=O)oc2c1	14
CCOc1ccc(NC(=O)N(CCC(C)C)C2CCN(C(C)=O)CC2)cc1	7.21
CCOc1ccc(N(C(=O)c2snc(C(N)=O)c2N)C(C(=O)NCC2CCCO2)c2c[nH]c3ccccc23)cc1 (stereo not drawn)	15.4
Cc1ccc(N(C(=O)C(F)(F)F)C(C(=O)NC2CCCCC2)c2cccs2)cc1 (stereo not drawn)	8.94
Cn1ccc(NC(=O)CCl)n1	4.47
COc1ccc(CC(=O)NC(=S)Nc2cccc(CO)c2)cc1	-10.8
CC1CCCCN1C(=O)COC(=O)C1CCN(S(=O)(=O)c2ccc(Cl)c(C(F)(F)F)c2)CC1 (stereo not drawn)	7.66
CCOC(=O)c1c(C)nn(-c2ncccc2NC(=O)CCC(=O)O)c1C	15.5
CN1C(=O)/C(=C/c2coc3ccc(O)cc3c2=O)SC1=S	10.8
Brc1ccc(/C=N/Nc2ccccn2)cc1	11.3
CCOC(=O)C1=C(C)NC(C)=C(C(=O)OCC)C1C(=O)OCC(=O)NC(C)C	8.88
Cc1cc(=O)oc(C)c1C(=O)N1CCN(Cc2ccc3c(c2)OCO3)CC1	1.53
O=C(NCc1ccccc1)c1ccc[n+]([O-])c1	19.5

Compound	hERG current change (%, negative = inhibition) at 1uM [%]
Cc1cnc(C(=O)OC(C)C(=O)Nc2ccc(Oc3ccccc3)cc2)cn1 (stereo not drawn)	11.7
COc1ccccc1C(=O)NCC(c1cccs1)N1CCc2ccccc21 (stereo not drawn)	10.3
CCCCCCOc1ccc(C(=O)n2cnc(N)n2)cc1	4.86
COc1cccc(-c2cc(C(F)(F)F)n3nc(N)nc3n2)c1	9.28
Nc1ncnc2c1ncn2CCOc1ccccc1	11.7
Cc1cc(C)n(-c2n[nH]c(=O)c3ccccc23)n1	12.2
COCc1c(C(=O)N/N=C(\C)c2ccncc2)nnn1-c1nonc1N	17
COc1cc([N+](=O)[O-])ccc1N1C(=O)CC(Sc2nccc(C)n2)C1=O (stereo not drawn)	6.15
CCCCCc1c(C)nc(Nc2ccccc2)[nH]c1=O	13.6
COCCSc1ccccc1C(=O)Nc1ccccc1C#N	10.7
Cc1cc(C)cc(NC(=O)C(OC(=O)Cn2cnc3c2c(=O)n(C)c(=O)n3C)c2ccccc2)c1 (stereo not drawn)	-33.1
CCc1nc2c(cnn2-c2ccc(F)cc2)c(=O)n1-c1ccc(N2CCC(C)CC2)cc1	13.7
O=C(Nc1nc2c(s1)C(=O)CCC2)c1ccccc1	17.9
CCN(CC(=O)NC1CCCC1)S(=O)(=O)c1ccc(C)cc1	0.468
COc1ccc(/C=N/Nc2ccc(C(F)(F)F)cc2[N+](=O)[O-])cc1O	3.36
CCC(C(=O)NCc1cccs1)n1nc(C)n2c(cc3occc32)c1=O (stereo not drawn)	6.25
C=CCc1c(C)nc(SCc2ccccc2)[nH]c1=O	10.4
COc1ccc(CCNC(=O)c2ccc(Cl)c(S(=O)(=O)N3CCCCCC3)c2)cc1	-0.87
Cc1ccc([N+](=O)[O-])cc1NC(=O)CN(C(=O)c1ccc(Cl)cc1)C1CCCCC1	-2.2
O=C(NC1CCN(C(=O)Nc2ccccc2Cl)CC1)c1ccccc1	1.3
CCCC(=O)Nc1ccc2c(c1)nc(CN1CCN(C(=O)OCC)CC1)n2C	15
C=C1C[C@]23C[C@@]1(O)CC[C@H]2[C@@]12C=C[C@H](O)[C@@](C)(C(=O)O1)[C@H]2[C@@H]3C(=O)O	1.57

Compound	hERG current change (%, negative = inhibition) at 1uM [%]
Cn1c(N2CCOCC2)cc(=O)n(C)c1=O	11.1
Cc1cc(=O)oc2ccc(OC(=O)c3cccc(S(=O)(=O)N4CCOCC4)c3)cc12	-23.1
Cc1ccc(S(=O)(=O)N2CCC(C(=O)OC(C)C(=O)N(C)c3ccccc3)CC2)cc1C (stereo not drawn)	7.92
O=C(NCC(c1cccnc1)N1CCN(c2ccc(F)cc2)CC1)c1ccc2c(c1)OCO2 (stereo not drawn)	-25
CCOc1ccc(/C=N/NC(=S)NC2CC3C=CC2C3)cc1 (stereo not drawn)	13.2
C(=N\Nc1nc(-c2ccccc2)cs1)/c1cccs1	12.7
Cc1ccc(F)cc1NC(=O)CSCc1nc2sc(C)c(C)c2c(=O)[nH]1	5.22
O=C(NCCC1=CCCCC1)C(=O)NCC1OCCCN1S(=O)(=O)c1cc(F)ccc1F (stereo not drawn)	5.85
COc1ccccc1NC(=O)c1ccc(NC(=O)CN2CCCC2)cc1	-5.47
COc1cc(CNCCN2CCOCC2)ccc1OCc1ccc(Cl)cc1Cl.Cl	-26
O=C(c1cccs1)N1CCC(c2nc3c(nnn3Cc3c(Cl)cccc3Cl)c(=O)[nH]2)CC1	6.3
CCN1CCN(C(=O)c2cn(CCOC)c(=O)c3c2c2ccccc2n3C)CC1	13.4
COC(=O)c1ccc(NC(=O)c2ccc3c(c2)C(=O)N(Cc2cccnc2)C3=O)cc1	-5.89
COC(=O)c1cc(S(=O)(=O)NCc2ccccc2)cn1C	10.6
Cn1cccc1CC(=O)NNC(=S)Nc1ccccc1Cl	8.52
CCc1cc2c3c(c(=O)oc2cc1OC(C)C(=O)O)CCCC3 (stereo not drawn)	13.5
C/C(=N\NC(=O)CNc1cccc(C(F)(F)F)c1)c1cccc(Br)c1	5.75
O=C(N[C@@H](Cc1ccccc1)c1nc2ccccc2[nH]1)c1cc([N+](=O)[O-])ccc1Cl	5
O=S(=O)(c1ccccc1)N1N=C(c2ccccc2)CC1c1ccccc1 (stereo not drawn)	5.41
CS(=O)c1ccc(-n2c(=O)n(Cc3ccccc3)c(=O)c3[nH]cnc32)cc1 (stereo not drawn)	14.1
COC(=O)C1(C(O)C(=O)c2ccc(C)cc2C)CCCCC1 (stereo not drawn)	1.23
Cc1ccc([N+](=O)[O-])cc1NC(=O)CSc1nnc(C)n1CC1CCCO1 (stereo not drawn)	11.2

Compound	hERG current change (%, negative = inhibition) at 1uM [%]
COC(=O)c1cc(NC(=O)c2cccc(C(F)(F)F)c2)c(=O)oc1C/C=N/OCc1cccc(Cl)c1Cl	13
O=C(NCCc1ccccc1)C(=O)NCCC1CCCCN1S(=O)(=O)c1ccccc1 (stereo not drawn)	10.9
O=C(CCNC(=O)c1ccccc1Cl)Nc1nc(-c2ccc3ccccc3c2)cs1	-0.833
N/C(=N\OC(=O)c1cc(-c2ccccc2)nc2ccccc12)c1cccnc1	11.7
CCSc1nnc(NC(=O)C2CCN(S(=O)(=O)c3c(C)c(C)cc(C)c3C)CC2)s1	8.42
CCCc1cc(C(=O)N2CCCC(N3CCN(c4ccc(F)cc4)CC3)C2)no1 (stereo not drawn)	-74.1
Cc1nc2ccccc2c2oc(C(=O)N3CCN(C4CCCCC4)CC3)cc12	-34
O=C(Nc1cc(Cl)ccc1-n1cncn1)c1cccs1	-1.35
CCOC(=O)CC1=CC(=O)Nc2ccccc2N1	-2.17
COc1ccc(CCNC(=O)CC(NC(=O)c2ccccc2Cl)c2ccccc2)cc1 (stereo not drawn)	14.5
Cc1cccc(N2CCC(N=CN(C)C)=N2)c1	7.38
Cc1nc(-c2ccc(S(=O)(=O)N3CCN(C(c4ccccc4)c4ccccc4)CC3)s2)cs1	6.73
Fc1ccc(OCc2nc(-c3cccs3)no2)cc1	10.3
COC(=O)C1=C(NC(=O)c2ccccc2C)CCS1	12
CC(NC(=O)CN(c1ccc(F)cc1)S(C)(=O)=O)c1ccccc1 (stereo not drawn)	12
O=C(COC(=O)c1nc(Cl)ccc1Cl)NC(=O)c1ccccc1	-0.711
O=C1c2ccccc2C2(c3ccccc3)NCCCN12 (stereo not drawn)	14
COc1ccccc1-n1cnnc1SCC(=O)N1CC(=O)Nc2ccccc21	1.99
CCN(CC(=O)NCc1ccc(F)cc1)C(=O)C(C)Oc1cccc(Cl)c1 (stereo not drawn)	-18.1
O=C(O)C1CCCCC1C(=O)Nc1ccc(F)cc1F (stereo not drawn)	3.17
C#CCN(C(=O)c1cc(COc2ccc(C)c(C)c2)on1)C1CCCCC1	11.2
